Some of the results follow.
Test system: T1, C. trachomatis L2/434/Bu expressing GFP (CTL2-GFP)
T1 construct: L2/434/Bu GFP intracellular growth in HeLa cells
Design: species or system HeLa; C. trachomatis total inclusion area by high-content imaging, normalised to DMSO
Settings: total inclusion area; 28.5 h, 10 µM; inhibitor
Method in brief: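 High-content images of fixed, Hoechst-stained infected cultures supply inclusion area and count (growth) plus nuclei number (viability), complementing bulk GFP/resorufin fluorescence. MIC determination is unchanged from the primary assay.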

Compound | % of control remaining
CCNc1cncc(-c2cncc(OC)c2)n1 [CBK065366] | 74.5871
OCCCn1cc(CN2CCC(CO)C2)c2ccccc21 (stereo not drawn) [CBK282114] | 105.637
O=C(Nc1cccc(O)c1)c1ccc2c(c1)C(=O)N(Cc1ccco1)C2=O [CBK268640] | 89.1774
c1ccc(N2CCN(c3cncc(-c4ccc5ccccc5c4)n3)CC2)nc1 [CBK066104] | 85.2045
CN(C)CCNCCOc1cccc([N+](=O)[O-])c1 [CBK267803C] | 104.486
O=C(OCc1ccc([N+](=O)[O-])cc1)C1CCN(S(=O)(=O)c2cccc3cccnc23)CC1 [CBK264430] | 129.146
O=C(Nc1cccc(N2CCNCC2)c1)c1ccnc2ccccc12 [CBK029416T] | 93.7397
Cn1c(SCCOc2ccccc2Cl)nnc1-c1ccncc1 [CBK265969] | 127.632
Cc1ccc(-n2cccn2)cc1S(=O)(=O)N1CCNCC1C (stereo not drawn) [CBK307344] | 118.373
COc1ccccc1C1(NC(=O)Cn2nc(C)cc2C)CCCC1 [CBK283573] | 76.252
COc1ccc2cc(C(=O)N3CCC(c4ccncc4)CC3)[nH]c2c1 [CBK283799] | 47.459
CCc1nn(CC(=O)N2CCCC2)c(=O)c2cc3ccsc3n12 [CBK284120] | 79.3626
O=C(Nc1nnc(C2CCCCC2)s1)c1ccccc1I [CBK057918] | 51.6491
NS(=O)(=O)c1ccc(CCNCC2CCCCC2)cc1 [CBK288467] | 63.4313
CC(C)CNC(=O)N1CCN(Cc2ccccc2)CC1 [CBK155644] | 103.925
CCOc1cc(/C=C2\SC(=N)NC2=O)ccc1OC(=O)c1cccs1 [CBK265510] | 93.186
Cc1cc(C)n(C(C)Cn2cncc2-c2cn(C)nc2C)n1 (stereo not drawn) [CBK281792] | 129.914
O=C(COc1cccc(Cl)c1)NNC(=S)Nc1ccccc1 [CBK267180] | 116.275
COc1ccc(-c2cc(C(=O)N[C@@H](C)c3ccccc3)cnc2-c2cccc(C)c2)cc1 [CBK036635] | 94.6021
Cc1ccc(CNC(=O)c2cnoc2-c2ccc(Br)cc2)cc1F [CBK154896] | 87.5596
Cc1cccc(-c2csc3c(=O)[nH]c(N4CCC5(CC4)OCCO5)nc23)c1 [CBK291142] | 80.5034

Compound | % of control remaining
Cc1ccc2[nH]c(CN3CCC(O)C3)cc(=O)c2c1 (stereo not drawn) [CBK307690] | 59.7429
O=C(NCC1CCCN1)c1cc2cc(Cl)ccc2[nH]1 (stereo not drawn) [CBK115917C] | 86.7266
CCNc1cncc(-c2cc(OC)c(OC)c(OC)c2)n1 [CBK065336] | 76.0902
Cc1cc(C)nc(N(C#N)CC(=O)c2ccc(Br)cc2)n1 [CBK266562] | 131.403
COc1cc(/C=C2\C(=O)NN(c3ccccc3)C2=O)ccc1OCCOc1cc(C)ccc1C [CBK263947] | 95.1195
CCOC(=O)/C(=N/Nc1cccc(C)c1)c1csc(N)n1 [CBK261059] | 67.4905
Cc1cccc(CN(CCN)C(=O)NC2C[C@H]2c2ccccc2)n1 (stereo partly drawn) [CBK046220C] | 93.7956
CCOc1ccc(NC(=O)CCc2ncc(C(C)(C)C)o2)c(C)c1 [CBK306021] | 46.1809
CCCN1CC(NS(=O)(=O)c2cc(OC)c(C)cc2OC)CC1=O (stereo not drawn) [CBK307036] | 57.0746
Cc1ccc(C)c(CC(=O)N(C)C2CCN(C3CCOCC3)CC2)c1 [CBK304964] | 51.0156
O=C1CC(c2noc(-c3ccncc3)n2)CN1c1ccccc1 (stereo not drawn) [CBK288043] | 107.053
O=C(CN(c1ccccc1F)S(=O)(=O)c1ccccc1)Nc1ccccc1C(=O)O [CBK263999] | 84.6349
C/C(=N\NC(=O)C1CC1)c1ccc(C)cc1 [CBK016047] | 87.6402
O=[N+]([O-])c1cc(-c2nnc(-c3ccccc3)o2)ccc1-n1c(-c2ccccc2)nnc1-c1ccccc1 [CBK267341] | 110.854
COc1ccc(/C(C)=N\NC(=O)c2cccc(Br)c2)cc1 [CBK261612] | 87.9906
O=C(Cc1ccc(Br)cc1)N1CCC(Cc2ccccc2)CC1 [CBK058493] | 58.3676
CC(NC(=O)c1cnc(-c2cccc(C(F)(F)F)c2)c(-c2ccncc2)c1)c1ccc(F)cc1 (stereo not drawn) [CBK037556] | 162.747
N#Cc1ccccc1NC(=O)C(CC(=O)O)NCc1ccccc1 (stereo not drawn) [CBK286907] | 86.6931
CCN(CCO)C(=O)NC1CCCc2c1cnn2Cc1ccccc1 (stereo not drawn) [CBK305277] | 80.5623
CC1CN(C(=O)c2ccccc2-c2ccccc2C(=O)O)CC(C)O1 (stereo not drawn) [CBK286577] | 73.3505
Cc1nc2n(c(=O)c1CCSc1ccccc1C(=O)O)CCCC2 [CBK286818] | 106.462

Compound | % of control remaining
CCCc1[nH]nc(O)c1Cc1ccc(C(C)C)cc1 [CBK075033] | 75.6994
CCC(NC(=O)CCc1cc2n(n1)CCNC2)c1cn2cccnc2n1 (stereo not drawn) [CBK307090] | 37.6305
Cc1cc(C(=O)Nc2nc(Cc3n[nH]c(=S)n3C)cs2)sc1C [CBK296687] | 100.133
O=C(Nc1ccc(C(F)(F)F)cc1)c1cc(Br)cnc1NCc1cccnc1 [CBK076419] | 74.8156
COc1ccc([C@@]23CC[C@@H](NC(=O)N(C)c4ccc(Cl)cc4)C[C@@H]2N(C)CC3)cc1OC [CBK045682T] | 80.3857
CN(C)c1cccc(C(=O)Nc2ccccc2N2CCOCC2)c1 [CBK295184] | 79.7012
COc1ccc(CCOc2cnc(-c3ccccc3)c(N)n2)cc1 [CBK145065] | 65.7526
O=C(NC1CCN(c2ncccn2)CC1)c1cccnc1O [CBK297739] | 37.0753
N#Cc1ccc(C(=O)N2Cc3nc[nH]c3C[C@H]2c2nc(-c3ccncc3)no2)cc1 [CBK288963] | 107.106
O=C(Nc1ccc2ncccc2c1)c1ccc(OC(F)(F)F)cc1 [CBK159815] | 87.8444
CC1CCN(Cc2c(C3CCNCC3)[nH]c3ncccc23)CC1 [CBK285022] | 85.9347
O=C(Nc1ccncc1)c1ccc(N2C(=O)c3ccccc3C2=O)cc1 [CBK287803] | 77.0239
O=C(O)CC1C(=O)NCCN1Cc1ccc(-c2ccccc2)cc1 (stereo not drawn) [CBK269812] | 99.5033
O=C1CC2(CCC3C(C(=O)NC4CCCC4)C32)Oc2ccccc21 (stereo not drawn) [CBK284922] | 118.391
O=[N+]([O-])c1cc2c(cc1CN1CCN(Cc3ccccc3)CC1)OCO2 [CBK261548] | 112.826
CC(NC(=O)c1cc(-c2ccccc2)nc2ccccc12)c1cccc(S(N)(=O)=O)c1 (stereo not drawn) [CBK298285] | 93.7068
O=C(NC1CCCOC1)c1cc(-c2cccs2)no1 (stereo not drawn) [CBK282565] | 117.964
COc1cc(OC)cc(C(=O)Nc2nnc(C(F)(F)F)s2)c1 [CBK099828] | 84.8557
O=C(CCn1c(C(F)F)cc2cccnc21)NC1CCCCC1 [CBK285064] | 95.1742
CC(C)(C)S(=O)(=O)Nc1nccnc1-c1cccs1 [CBK050765] | 80.5457
CCc1nn2c(=O)cc(CNc3ccc4c(c3)OCCO4)nc2s1 [CBK297787] | 77.7692

Compound | % of control remaining
O=c1oc2cc(S(=O)(=O)NCc3ccco3)ccc2c2ccc(S(=O)(=O)NCc3ccco3)cc12 [CBK267177] | 116.345
S=C(Nc1ccccc1)Nc1nc2ccccc2n1CCOc1ccccc1 [CBK265487] | 76.7256
CCOC(=O)c1c(-c2ccc(OC)cc2)noc1C(=O)c1ccccc1 [CBK002295] | 85.4433
Nc1ncc(-c2ccco2)nc1-c1ccc(C(=O)NCCO)cc1 [CBK064124] | 103.088
C1=CCC(CN2CCN(C3CCN(Cc4ccccc4)CC3)CC2)CC1 (stereo not drawn) [CBK263469] | 80.9018
Cc1cccc(-c2nnc(-c3ccc(NC(=O)CSCc4ccccc4)cc3)o2)c1 [CBK266775] | 111.896
CC1Cc2cc(C(O)CN3CCCC3)ccc2N1C(=O)C1CC1 (stereo not drawn) [CBK286440] | 121.234
Cc1cccnc1NC(=O)c1ccc(NC(C)C)c([N+](=O)[O-])c1 [CBK269494] | 98.3405
Cc1ccc(S(=O)(=O)c2cccc(S(=O)(=O)N3CCCCC3)c2)cc1S(=O)(=O)N1CCCCC1 [CBK262207] | 87.6931
CS(=O)(=O)N1CCC2(CC1)Cn1c(cc3ccccc31)C(=O)O2 [CBK282820] | 100.424
CCOc1ccc(-c2cncc(Nc3cccc(C(F)(F)F)c3)n2)cc1 [CBK065798] | 20.2641
O=C(CSCc1nc2ccccc2[nH]1)Nc1cccc(C(F)(F)F)c1 [CBK268474] | 86.5447
COc1ccc(OC)c(NC(=O)CNC(=O)c2ccc(C)cc2)c1 [CBK268881] | 77.3789
CN(C)c1nc(-c2ccc3c(c2)CCCN3S(C)(=O)=O)cs1 [CBK305016] | 61.9045
COc1ccc(C(=O)CCN(C)CC(=O)O)cc1 [CBK287227] | 107.778
CCC(CO)Nc1nc(-c2ccc(O)cc2)cn2ccnc12 (stereo not drawn) [CBK037471] | 88.5371
CCc1cc(OCCCSc2nc(C)cc(O)n2)ccc1Cl [CBK267364] | 116.478
Cc1nc(C(F)(F)F)ccc1C(=O)N(C)CCN1CCCCC1 [CBK281917] | 109.853
